Data reported in the supplement of paper PMC3334620.
Whole data set: some 33,000 sequences, median “E-score (-0.5 to 0.5)” near -0.012, cut for the highest 2% near 0.29. The list shows a part of the results.

Each sequence was assayed against T1, Ybr033w (UniProt P38073) (assay: PBM E-score (8-mer binding enrichment) (E-score (-0.5 to 0.5)); higher = stronger / more preferred TF binding; most listed sequences are background and not binding sites). Conditions: protein concentration: 200 nM; construct: GST-full length.
T1 sequence: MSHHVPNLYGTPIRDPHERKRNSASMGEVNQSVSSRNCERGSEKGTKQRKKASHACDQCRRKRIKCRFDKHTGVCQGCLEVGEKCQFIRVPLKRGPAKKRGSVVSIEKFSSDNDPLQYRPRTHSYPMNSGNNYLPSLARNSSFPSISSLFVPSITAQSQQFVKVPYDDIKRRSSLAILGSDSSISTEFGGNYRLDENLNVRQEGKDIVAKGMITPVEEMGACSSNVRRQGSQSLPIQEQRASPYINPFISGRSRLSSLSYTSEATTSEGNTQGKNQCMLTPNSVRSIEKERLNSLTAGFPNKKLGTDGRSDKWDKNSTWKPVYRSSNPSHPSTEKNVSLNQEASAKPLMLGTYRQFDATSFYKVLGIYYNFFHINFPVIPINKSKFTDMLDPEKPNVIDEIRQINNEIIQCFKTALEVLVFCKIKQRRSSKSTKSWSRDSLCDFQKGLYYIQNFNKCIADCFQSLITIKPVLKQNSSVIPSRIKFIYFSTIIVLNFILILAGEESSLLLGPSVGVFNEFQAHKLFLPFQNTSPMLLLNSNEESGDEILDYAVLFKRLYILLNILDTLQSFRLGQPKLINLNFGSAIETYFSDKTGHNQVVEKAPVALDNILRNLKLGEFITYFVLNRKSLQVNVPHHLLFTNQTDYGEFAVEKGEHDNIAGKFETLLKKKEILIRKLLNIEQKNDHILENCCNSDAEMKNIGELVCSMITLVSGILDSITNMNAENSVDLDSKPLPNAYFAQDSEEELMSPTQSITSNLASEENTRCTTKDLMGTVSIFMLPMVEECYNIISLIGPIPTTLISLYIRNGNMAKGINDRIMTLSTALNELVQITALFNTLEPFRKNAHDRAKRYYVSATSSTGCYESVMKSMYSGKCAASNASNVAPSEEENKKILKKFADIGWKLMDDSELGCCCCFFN
Method: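 Universal 'all 10-mer' protein binding microarrays (Agilent AMADID 015681) probed with GST-tagged S. cerevisiae TFs (full-length or DBD) made by in vitro transcription/translation (PURExpress), about 100-200 nM. Bound TF was detected with fluorescent anti-GST. Each ungapped 8-mer (which stands for itself and its reverse complement) is scored by the PBM enrichment score (E-score), a modified Wilcoxon-Mann-Whitney statistic from -0.5 to +0.5, computed with the Universal PBM Analysis Suite. Scale: above 0.35 generally sequence-specific binding.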

Compared with CGTGACTC, ATCAAAAA is higher in “PBM E-score” value: -0.234 for the first, 0.27 for the second.

Compared with GATATCCA, CGTCACAC is lower in “PBM E-score” value: 0.184 for the first, -0.107 for the second.

First: CAGCAGGG
Second: CCCTCCAC
The “PBM E-score” value of the first is lower: -0.292 for the first, -0.0931 for the second.

First: ACGGGTCC
Second: ACAACTGG
The “PBM E-score” value of the first is lower: -0.338 for the first, -0.0203 for the second.

First: TTCTAGAA
Second: ACATCTCA
The “PBM E-score” value of the first is lower: 0.102 for the first, 0.181 for the second.

Going from ATTACCAG to ATAAGACG, the “PBM E-score” value rises from 0.0201 to 0.0366.

First: TATCCTGA
Second: ACCGCGCG
The “PBM E-score” value of the first is higher: 0.167 for the first, 0.0302 for the second.

First: TCGCTTAA
Second: AAAGTGTA
The “PBM E-score” value of the first is higher: 0.0307 for the first, -0.0339 for the second.

Compared with TTGAACAA, AGACCGTA is lower in “PBM E-score” value: 0.0558 for the first, -0.0802 for the second.

First: CAAGGATC
Second: CCCGGCAG
The “PBM E-score” value of the first is higher: 0.0245 for the first, -0.2 for the second.

First: GACCTCGA
Second: ATCCGTGA
The “PBM E-score” value of the first is higher: 0.00169 for the first, -0.00293 for the second.

Going from ATCTAAGG to ACCTAACG, the “PBM E-score” value falls from 0.00166 to -0.069.

Compared with ATGCGTGG, ACTAGATC is higher in “PBM E-score” value: -0.346 for the first, -0.0476 for the second.

First: AGGCCCGA
Second: ATTTATCA
The “PBM E-score” value of the first is lower: -0.162 for the first, 0.246 for the second.

First: TGATTGAA
Second: CTCGTAAA
The “PBM E-score” value of the first is higher: 0.117 for the first, -0.0763 for the second.

First: CATGTTTC
Second: ACGAAAGA
The “PBM E-score” value of the first is lower: 0.196 for the first, 0.209 for the second.

First: CTCACTTA
Second: ATGACGCG
The “PBM E-score” value of the first is higher: 0.0375 for the first, -0.0139 for the second.

Compared with AACTGTCC, CACGTGGA is higher in “PBM E-score” value: -0.158 for the first, 0.0427 for the second.

First: CGCCCTAG
Second: CACTTAGA
The “PBM E-score” value of the first is lower: -0.166 for the first, 0.18 for the second.

Going from CGTTACAA to GTAACAGA, the “PBM E-score” value rises from 0.0792 to 0.206.

Going from GGAACGCA to ATAACGAG, the “PBM E-score” value rises from -0.0877 to 0.0751.

Compared with GGACTCAA, GAGCGGCA is higher in “PBM E-score” value: -0.217 for the first, -0.185 for the second.

Going from CAAGCCCC to ACTAGCTG, the “PBM E-score” value rises from -0.292 to -0.053.

Compared with AACCCAAA, ATATAAAT is higher in “PBM E-score” value: 0.115 for the first, 0.34 for the second.

First: CAGTGACA
Second: AGTTAGCG
The “PBM E-score” value of the first is lower: -0.122 for the first, 0.137 for the second.

Compared with CCCGCGAC, CCATGCAC is higher in “PBM E-score” value: -0.221 for the first, -0.103 for the second.

Compared with GGGGACCA, AGTGTTCC is higher in “PBM E-score” value: -0.228 for the first, 0.131 for the second.

First: CACCGAGC
Second: GGTATACC
The “PBM E-score” value of the first is higher: -0.0991 for the first, -0.102 for the second.

Compared with ACTTTTCC, TGTTGCAA is higher in “PBM E-score” value: 0.246 for the first, 0.269 for the second.

Going from ATAGAGAG to TATGAGCA, the “PBM E-score” value rises from -0.127 to -0.0537.

Compared with GAATTCGA, CTTATGAC is higher in “PBM E-score” value: 0.0547 for the first, 0.0784 for the second.

Compared with GCTGAGAA, AGCATGTA is higher in “PBM E-score” value: -0.101 for the first, 0.0159 for the second.

Compared with CGTTATTC, CGATTATA is higher in “PBM E-score” value: 0.175 for the first, 0.276 for the second.

First: AGCGGTGG
Second: CAAGCTCA
The “PBM E-score” value of the first is lower: -0.24 for the first, -0.176 for the second.

Compared with AAGTCCTC, AATCCTGT is higher in “PBM E-score” value: -0.0668 for the first, 0.276 for the second.

First: GAGCCAGC
Second: GTGTTCAA
The “PBM E-score” value of the first is lower: -0.0814 for the first, 0.117 for the second.

Compared with CGAATAAC, ACCGAGGT is lower in “PBM E-score” value: 0.07 for the first, -0.143 for the second.

First: CCCCCGAC
Second: CCTCACCG
The “PBM E-score” value of the first is higher: -0.193 for the first, -0.286 for the second.

Going from CGAAGTTA to CTCTCTTA, the “PBM E-score” value falls from 0.141 to 0.0563.

Compared with AAAGCGGC, AGTGCTCA is lower in “PBM E-score” value: 0.0274 for the first, -0.0918 for the second.

Going from AGACGTGG to ACTTTAAA, the “PBM E-score” value rises from 0.0212 to 0.253.

Going from TATATTAA to ACTGCGAC, the “PBM E-score” value falls from 0.324 to 0.00394.

Going from AAACGAGG to ACCGCTAG, the “PBM E-score” value falls from -0.0386 to -0.172.
